Experimental data published in PMC4336329 (PLoS ONE, 2015).
The campaign covered roughly 310,000 compounds. About 14,000 (4.5%) showed an effect of 50% or more. The effect is printed as a negative number. Some of the results follow.

These compounds were tested against human ether-à-go-go-related gene (hERG) potassium channel (human, UniProt Q12809) (assay: primary screen, population patch clamp on CHO cells stably expressing hERG).
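Also: peak tail current of the secondary pulse compared with the same well before compound.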

Chain of human ether-à-go-go-related gene (hERG) potassium channel (Q12809 whole entry, looked up): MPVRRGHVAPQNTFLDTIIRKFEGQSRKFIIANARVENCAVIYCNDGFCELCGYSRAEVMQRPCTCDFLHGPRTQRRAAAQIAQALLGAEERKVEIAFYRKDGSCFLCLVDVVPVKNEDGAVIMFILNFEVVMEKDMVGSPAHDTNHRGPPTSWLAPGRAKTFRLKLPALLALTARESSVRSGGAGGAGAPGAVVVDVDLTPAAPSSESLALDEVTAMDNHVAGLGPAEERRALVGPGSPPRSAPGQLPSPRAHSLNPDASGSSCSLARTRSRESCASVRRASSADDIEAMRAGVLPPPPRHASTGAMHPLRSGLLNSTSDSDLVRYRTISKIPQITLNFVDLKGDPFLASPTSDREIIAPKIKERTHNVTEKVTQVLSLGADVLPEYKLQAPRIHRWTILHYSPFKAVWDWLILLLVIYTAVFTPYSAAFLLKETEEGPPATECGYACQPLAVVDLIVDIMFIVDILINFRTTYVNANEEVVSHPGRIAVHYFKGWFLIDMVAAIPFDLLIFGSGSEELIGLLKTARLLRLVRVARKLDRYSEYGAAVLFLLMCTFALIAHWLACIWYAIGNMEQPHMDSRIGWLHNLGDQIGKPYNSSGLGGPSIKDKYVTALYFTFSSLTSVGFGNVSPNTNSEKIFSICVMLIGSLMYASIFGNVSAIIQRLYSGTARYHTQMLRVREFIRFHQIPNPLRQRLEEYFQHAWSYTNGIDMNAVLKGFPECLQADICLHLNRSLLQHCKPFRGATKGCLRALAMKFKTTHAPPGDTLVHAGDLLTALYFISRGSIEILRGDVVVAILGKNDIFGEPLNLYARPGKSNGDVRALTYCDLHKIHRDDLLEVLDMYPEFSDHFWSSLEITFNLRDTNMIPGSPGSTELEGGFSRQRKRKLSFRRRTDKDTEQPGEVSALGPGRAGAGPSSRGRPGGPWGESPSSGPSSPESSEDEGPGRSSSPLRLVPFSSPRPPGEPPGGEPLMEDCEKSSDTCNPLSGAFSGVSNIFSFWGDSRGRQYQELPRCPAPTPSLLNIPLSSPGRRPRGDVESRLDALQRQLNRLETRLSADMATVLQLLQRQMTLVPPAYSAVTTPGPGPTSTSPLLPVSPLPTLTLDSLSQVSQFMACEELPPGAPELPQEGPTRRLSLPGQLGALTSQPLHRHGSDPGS

Point of comparison: `CCC(=O)NC(=S)Nc1ccc(NC(=O)c2ccc([N+](=O)[O-])cc2)cc1`, “hERG current change (%, negative = inhibition) at 10uM” value 10.2%. Against it:
- COc1ccc(S(=O)(=O)NNC(=O)Cc2csc(C)n2)cc1[N+](=O)[O-] — lower, 8.31%
- COc1ccc(OC)c(/C=C/C(=O)OCC(=O)NCc2ccco2)c1 — lower, 2.2%
- COc1ccccc1N1CCN(CC(=O)N2CCCC2)CC1.O=C(O)C(=O)O — lower, 8.21%
- COc1ccc(S(=O)(=O)N2CCC(C(=O)NCC3CCCO3)CC2)cc1 (stereo not drawn) — lower, -10.8%
- C=CCNC(=O)c1ccccc1SCc1c(C)noc1C — higher, 18.8%
- CCN(CC)C(=O)Cn1cc(S(=O)(=O)CC(=O)NCc2ccccc2)c2ccccc21 — lower, -11.6%
- Cc1ccc(OCC(O)Cn2c(N3CCCCC3)nc3c2c(=O)[nH]c(=O)n3C)cc1 (stereo not drawn) — lower, 9.46%
- CCOC(=O)C1CCN(S(=O)(=O)c2ccc(CC)cc2)CC1 — lower, -18.6%
- CCOC(=O)c1nc(C)sc1-c1ccnn1S(=O)(=O)c1cccc(Cl)c1 — lower, -22.5%
- O=C(CCN1C(=O)[C@H]2CC=CC[C@H]2C1=O)NCc1nc(-c2ccc(Cl)cc2)no1 — lower, -14.2%
- Cc1ccc(CS(=O)(=O)CCC(=O)NCCN2CCCCC2C)cc1 (stereo not drawn) — lower, -2.59%
- CCOC(=O)C1=C(C)N(CCCC(=O)O)C(=O)NC1c1ccccc1OS(=O)(=O)c1ccc(C)cc1 (stereo not drawn) — lower, -15.2%
- CCOC(=O)C1CCCN(c2c(NCCCN(C)c3ccccc3)c(=O)c2=O)C1 (stereo not drawn) — lower, -5.19%
- COc1ccc(NC(=O)C2CCC(=O)N2C(=O)OCc2ccccc2)cc1 (stereo not drawn) — lower, -3.98%
- CCOC(=O)C1CCCN(S(=O)(=O)c2cn(C)c(=O)n(C)c2=O)C1 (stereo not drawn) — higher, 12.8%
- COc1ccc(CN2CCN(C(=O)c3cccs3)CC2)cc1.O=C(O)C(=O)O — lower, -7.86%
- CCN(CC)S(=O)(=O)c1ccc(N2CCCCC2)c(C(=O)Nc2ccccc2N2CCOCC2)c1 — lower, -51.1%
- CCCC(=O)C1=C(O)C(C(=O)OC)C(C)(C)CC1=Nc1cccc2ccccc12 (stereo not drawn) — lower, -0.911%
- COc1ccc(Cc2nnc(NC(=O)c3ccc(OC)cc3OC)s2)cc1 — lower, 5.76%
- COCCN1C(=O)N(c2cccc(C)c2)C(=O)C1CC(=O)Nc1cc(OC)cc(OC)c1 (stereo not drawn) — the same, 10.2%
- C=C1C(=O)O[C@H]2[C@H]1[C@H](OC(=O)CC(=O)O[C@@H]1C[C@@H](C)[C@@H]3C=CC(=O)[C@@]3(C)[C@H]3OC(=O)C(=C)[C@H]13)C[C@@H](C)[C@H]1C=CC(=O)[C@]12C — higher, 25.3%
- Cc1ccc(CNC(=O)c2cc(C)nn2-c2ccccc2)cc1 — lower, -15%
- CCC(NC(=O)C1CCCC1)c1ccc(C)cc1 (stereo not drawn) — higher, 13%
- O=C(Cn1cc(Cl)ccc1=O)c1ccc(Cl)cc1 — higher, 11.7%
- O=C(CSc1ncnc2c1cnn2-c1ccccc1)Nc1ccccc1 — lower, 0.835%
- CC(NC(=O)CN(c1ccccc1F)S(C)(=O)=O)c1ccccc1 (stereo not drawn) — lower, -1.82%
- Cc1cccc(C(=O)NCC(=O)NCCSc2ccc(Br)cc2)c1 — lower, -7.38%
- COc1ccc(F)cc1CSc1nnnn1-c1ccc(O)cc1 — lower, -32.1%
- COC(=O)c1ccccc1S(=O)(=O)N1CCC(C(=O)OC(C)C(=O)Nc2ccc(NC(C)=O)cc2)CC1 (stereo not drawn) — lower, -14.6%
- CCCn1nc2cc(C(=O)NCC34CC5CC(CC(C5)C3)C4)ccc2c1OCC — lower, -11.3%
- O=C(c1ccncc1)N1CCN(C(=O)c2cccc3ccccc23)CC1 — higher, 14%
- C/C(=N\N1CCN(Cc2ccc(C)cc2)CC1)c1ccco1 — lower, -67.6%
- CCOC(=O)[C@H]1[C@H]2COc3ccc(OC)cc3[C@@H]2N2C(=O)CN(C)C(=O)[C@@]12C — lower, 0.268%
- CN1C(=O)N(C)C(=O)C2(Cc3c(ccc4ccccc34)N(C)C2)C1=O — lower, 0.124%
- CCCCNC(=O)C(c1ccc(OCC(=O)OC)c(C(=O)OC)c1)N(CCOC)C(=O)CCCCCN1C(=O)NC(c2ccc(-c3ccccc3)cc2)C(C(=O)OCc2ccccc2)=C1C (stereo not drawn) — lower, 4.15%
- Clc1ccccc1Nc1nnc(-c2ccncc2)s1 — lower, -6.07%
- COCCn1c(NC(=S)NC(=O)C2CC2)cc(=O)[nH]c1=O — higher, 21.6%
- O=C(/C=C/c1ccc(OC(F)F)cc1)Nc1cccc(S(=O)(=O)N2CCOCC2)c1 — higher, 14.2%
- O=C(Nc1cc(C(F)(F)F)ccc1N1CCOCC1)c1ccco1 — lower, 6.93%
- Cc1ccc(CNC(=O)c2cn(C)c3ccc(S(=O)(=O)N4CCOCC4)cc3c2=O)cc1 — lower, -9.75%
- CC(=O)N1CCN(c2ccccc2NC(=O)COc2ccc(Br)cc2)CC1 — lower, -9.2%
- COc1ccc(/C=N\NS(=O)(=O)c2ccc(C)cc2)cc1COc1ccccc1[N+](=O)[O-] — lower, 3.23%
- CCN(CC)S(=O)(=O)c1ccc(N2CCOCC2)c(NS(=O)(=O)c2ccc(C)c(C)c2)c1 — lower, -7.03%
- COc1ccc(NC(=S)NC(NC(=O)c2cccc(C)c2)C(Cl)(Cl)Cl)c([N+](=O)[O-])c1 (stereo not drawn) — lower, 3.92%
- Cc1c(Cl)cccc1NC(=O)COC(=O)Cc1ccsc1 — lower, 2.74%
- C[C@]12CCC(=O)C=C1C=C[C@@H]1[C@@H]2CC[C@@]2(C)[C@H]1CC[C@@]21CCC(=O)O1 — lower, -31.8%
- COc1ccc(Cl)cc1NC(=O)COc1ccc2c(c1)OCO2 — higher, 12.7%
- CC1(C)C(=O)N(c2ccccc2Cl)C(=O)c2ccccc21 — lower, -18.2%
- NNC(=O)C1CC1(c1ccccc1)c1ccccc1 (stereo not drawn) — lower, 5.98%
- CCCC[n+]1ccn(-c2nc3ccccc3nc2[N-]S(=O)(=O)c2ccc(Br)cc2)c1 — lower, -7.79%
